Data published in PubChem BioAssay AID2528 (National Center for Advancing Translational Sciences (NCATS), 2010).
Several values for one entry are separate records, joined by “and”; a condition that tells them apart may be missing. Equal values may be shown once. Screen size: about 350,000 compounds; about 700 (0.2%) were called active. The call rests on the fitted dose curve; in most records, active means well fitted inhibition curve with a large enough effect; inconclusive means small, poorly fitted or top-dose-only effect; inactive means flat fitted curve, though single readings scatter. Only a part is listed here, and it is no random draw. Numbered stars: 1 amine (or outer) side, 2 acyl side, 3 side chain; on linkers, the order of the positions; unused ones are H or OH. Bridge positions count the residues as written; N and C are the ends. Square brackets hold non-standard residues; d marks the D form. Peptide text beside a SMILES is read from it. I, II: the chains in the order shown. * marks the point of attachment. Actinocin(9to1) = Cc1c2oc3c(C)ccc(C(=O)[*:1])c3nc-2c(C(=O)[*:2])c(N)c1=O; Fmoc = O=C(OCC1c2ccccc2-c2ccccc21)*; AMC = Cc1cc(=O)oc2cc(N*)ccc12; Cha = N[CH](CC1CCCCC1)C(=O)O; NMeV = CN[C@H](C(=O)O)C(C)C; Sar = CNCC(=O)O

What follows are compounds tested against RecQ-like DNA helicase BLM (Homo sapiens) (UniProt P54132) (assay: qHTS Assay for Inhibitors of Bloom's syndrome helicase (BLM)). Details: recombinant BLM DNA unwinding, fluorescence dequenching; series mostly up to 56.1 µM; activity change, negative = inhibition: at the top concentration.
Further: nearly all actives have a fitted effect of over 35% in size.
Potency means the concentration at half of the fitted maximal effect.
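Wherever activity change, negative = inhibition is given: plate controls were vehicle for no effect and no enzyme for full effect.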

UniProt P54132, sequence (P54132 whole entry, looked up): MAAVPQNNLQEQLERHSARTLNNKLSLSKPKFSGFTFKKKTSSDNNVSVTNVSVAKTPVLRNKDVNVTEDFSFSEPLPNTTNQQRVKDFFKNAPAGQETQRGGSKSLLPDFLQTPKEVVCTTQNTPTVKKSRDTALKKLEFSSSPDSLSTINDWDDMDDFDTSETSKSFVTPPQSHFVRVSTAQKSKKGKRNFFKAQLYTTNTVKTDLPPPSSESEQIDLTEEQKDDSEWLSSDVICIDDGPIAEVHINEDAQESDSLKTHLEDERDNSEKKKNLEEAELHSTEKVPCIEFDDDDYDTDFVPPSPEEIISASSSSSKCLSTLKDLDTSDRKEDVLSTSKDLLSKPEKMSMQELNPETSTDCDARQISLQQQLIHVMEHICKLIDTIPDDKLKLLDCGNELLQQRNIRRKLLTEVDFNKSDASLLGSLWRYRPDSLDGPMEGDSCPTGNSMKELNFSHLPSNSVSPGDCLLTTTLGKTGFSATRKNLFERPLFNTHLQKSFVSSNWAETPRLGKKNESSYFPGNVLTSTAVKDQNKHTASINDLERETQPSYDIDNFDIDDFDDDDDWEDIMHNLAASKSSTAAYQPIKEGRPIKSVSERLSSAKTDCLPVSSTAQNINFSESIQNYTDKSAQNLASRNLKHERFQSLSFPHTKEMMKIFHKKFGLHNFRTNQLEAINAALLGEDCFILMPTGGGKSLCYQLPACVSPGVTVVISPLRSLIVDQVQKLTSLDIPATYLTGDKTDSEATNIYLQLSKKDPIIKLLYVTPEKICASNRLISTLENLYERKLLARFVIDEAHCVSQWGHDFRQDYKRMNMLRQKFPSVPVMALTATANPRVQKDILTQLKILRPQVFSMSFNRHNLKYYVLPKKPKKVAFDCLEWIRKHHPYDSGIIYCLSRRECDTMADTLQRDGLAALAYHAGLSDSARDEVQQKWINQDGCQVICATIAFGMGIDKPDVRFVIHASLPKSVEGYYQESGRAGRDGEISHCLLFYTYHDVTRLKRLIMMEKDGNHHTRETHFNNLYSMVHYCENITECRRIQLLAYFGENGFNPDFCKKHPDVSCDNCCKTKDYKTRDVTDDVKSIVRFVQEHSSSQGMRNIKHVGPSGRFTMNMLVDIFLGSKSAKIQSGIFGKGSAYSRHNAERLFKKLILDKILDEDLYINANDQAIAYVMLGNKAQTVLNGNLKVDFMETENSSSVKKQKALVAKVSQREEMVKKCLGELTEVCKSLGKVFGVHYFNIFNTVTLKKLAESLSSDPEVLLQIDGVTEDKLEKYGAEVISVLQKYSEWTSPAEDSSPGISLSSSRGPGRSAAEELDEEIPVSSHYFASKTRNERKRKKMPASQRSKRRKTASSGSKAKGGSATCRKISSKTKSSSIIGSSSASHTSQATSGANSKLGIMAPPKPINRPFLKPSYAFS

Compound | activity change, negative = inhibition | Potency
CC1(C)SC2C(NC(=O)C(N)c3ccccc3)C(=O)N2C1C(=O)O (stereo not drawn) | inactive: -13.9% | 
N[C@@H](COP(=O)(O)O)C(=O)O | inactive: 2.72% | 
CCCCc1oc2ccccc2c1C(=O)c1cc(I)c(OCCN(CC)CC)c(I)c1 |  | inactive
CN(Cc1cnc2nc(N)nc(N)c2n1)c1ccc(C(=O)NC(CCC(=O)O)C(=O)O)cc1 (stereo not drawn) | inactive: 3.97% | 
C[C@@]12C(=O)OC(=O)[C@@]1(C)[C@@H]1CC[C@@H]2O1 | inactive: -8.56% | 
NC(N)=NC(N)=Nc1ccccc1 |  | inactive
CC(=O)c1ccc(NC(=O)CC2Nc3cccc4cccc(c34)NC2=O)cc1 (stereo not drawn) | inactive: -5.01% | 
NCCc1ccc(O)c(O)c1 |  | inactive
NC(=O)c1ccccc1 | inactive: -3.44% | 
CCCN(CC1CC1)c1nc(C)nc(Nc2c(Cl)cc(Cl)cc2Cl)c1Cl | inactive: -1.94% | 
C[C@@H]1CCN=C(N)S1 | inactive: -8.13% | 
NS(=O)(=O)c1cc2c(cc1Cl)NC(C1C[C@H]3C=C[C@@H]1C3)NS2(=O)=O (stereo partly drawn) | inactive: -8.63% | 
CC(C)(C)NC(=O)[C@H]1CC[C@H]2[C@@H]3CC[C@H]4NC(=O)C=C[C@]4(C)[C@H]3CC[C@]12C | inactive: -11.3% | 
O=C(N/N=C/c1ccc(O)c(O)c1)N/N=C/c1ccc(O)c(O)c1 |  | active: 7.94 µM
O=C(O)C[C@@H]1C(=O)O[C@@H]2C(COC(=O)c3cc(O)c(O)c(O)c3)O[C@@H](OC(=O)c3cc(O)c(O)c(O)c3)[C@@H](OC(=O)c3cc(O)c(O)c4c3[C@H]1[C@H](O)C(=O)O4)[C@H]2OC(=O)c1cc(O)c(O)c(O)c1 (stereo partly drawn) |  | active: 0.1 µM
Cc1c(C(=O)N/N=C/c2ccc(-c3ccccc3[N+](=O)[O-])o2)sc(N)c1C#N |  | active: 7.94 µM
C=CCn1c(NS(=O)(=O)c2ccccc2)c(S(=O)(=O)c2ccc(C)cc2)c2nc3ccccc3nc21 |  | active: 4.47 µM
COC(=O)[C@H]1[C@H]2C[C@H]3c4[nH]c5ccccc5c4CCN3C[C@H]2CC[C@@H]1O | inactive: 0.319% | 
CC(C)C(=O)c1c(C(C)C)nn2ccccc12 | inactive: -3.88% | 
Cn1nc(-c2ccc(C(=O)Nc3ccc(F)cc3)cc2)c2ccccc2c1=O | inactive: -28.9% | 
CC[C@]1(O)C[C@@H]2CN(CCc3c([nH]c4ccccc34)[C@@](C(=O)OC)(c3cc4c(cc3OC)N(C)[C@H]3[C@@](O)(C(=O)OC)[C@H](OC(C)=O)[C@]5(CC)C=CCN6CC[C@]43[C@@H]65)C2)C1 | inactive: -7.91% | 
Oc1ccc(Nc2nc(NCC3CCCO3)c3ccccc3n2)cc1 (stereo not drawn) |  | active: 15.8 µM
CCCC(C(=O)OCCN(CC)CC)(c1ccccc1)c1ccccc1 |  | inactive
Clc1ccccc1C(c1ccccc1)(c1ccccc1)n1ccnc1 |  | inactive

Compound | activity change, negative = inhibition | Potency
NC(=O)NO | inactive: 4.42% | 
O=C(CSc1ccccn1)Nc1ccc2c(c1)C(=O)c1ccccc1C2=O |  | active: 25.1 µM
COc1cc(CC2COC(c3ccc(O)c(OC)c3)C2COC(C)=O)ccc1O (stereo not drawn) |  | active: 25.1 µM
CCN1/C(=C/C(C)=O)Sc2ccc(OC)cc21 | inactive: 0.258% | 
Oc1c(Cl)cc(Cl)cc1Sc1cc(Cl)cc(Cl)c1O | inactive: -27.7% | 
CN(C)c1ccc(/C=C2\C(=O)Nc3ccccc32)cc1 | inactive: -7.6% | 
CC(=O)OC(C)C[N+](C)(C)C (stereo not drawn) |  | inactive
COc1ccc(C(=O)Nc2nc3c(s2)Cc2cc(OC)ccc2-3)cc1 | inactive: -16% | 
CC(C)C[C@H](NC(=O)[C@@H]1O[C@H]1C(=O)O)C(=O)NCCCCN=C(N)N | inactive: -0.972% | 
O=C(OC1Cc2c(O)cc(O)cc2OC1c1cc(O)c(O)c(O)c1-c1c(C2Oc3cc(O)cc(O)c3CC2OC(=O)c2cc(O)c(O)c(O)c2)cc(O)c(O)c1O)c1cc(O)c(O)c(O)c1 (stereo not drawn) |  | active: 7.94 µM
CCc1ccc(S(=O)(=O)/N=C2\C=C(Nc3ccc(C(=O)O)cc3)C(=O)c3ccccc32)cc1 |  | active: 25.1 µM
CCN1CCC[C@H]1CNC(=O)c1cc(S(N)(=O)=O)ccc1OC |  | inactive
COc1ccc(C(=O)Nc2nnc(SCc3cc(=O)c4cc(C)cc(C)c4[nH]3)s2)cc1 |  | active: 20 µM
O=C1C(Cl)=C(NCCN2CCOCC2)C(=O)c2ncccc21 |  | active: 3.55 µM and active: 5.01 µM
O=c1c(-c2cc(F)cc(F)c2)nc2cnc(N3CCNCC3)nc2n1Cc1ccc(F)cc1 |  | active: 35.5 µM
CC(C)N(CCC(=O)c1ccc2ccccc2c1)Cc1ccccc1 | inactive: -7.9% | 
NS(=O)(=O)c1cc2c(cc1Cl)N[C@@H]([C@@H]1C[C@@H]3C=C[C@H]1C3)NS2(=O)=O | inactive: -5.76% | 
COc1cc(Cl)c(C)cc1NC(=O)CSc1ncc(S(=O)(=O)c2ccc(C(C)(C)C)cc2)c(=O)[nH]1 |  | active: 15.8 µM
CC(C)(Oc1ccc(C2CC2(Cl)Cl)cc1)C(=O)O (stereo not drawn) | inactive: -3.43% | 
COc1c2c(nc3ccccc13)O[C@H]([C@@](C)(O)CO)C2 | inactive: 5.03% [at 21.4 µM] | 
CCOC(=O)C1=C(C)NC(C)=C(C(=O)OC)C1c1cccc([N+](=O)[O-])c1 (stereo not drawn) |  | inactive
COCCOC(=O)C1=C(C)NC(C)=C(C(=O)OC(C)C)[C@@H]1c1cccc([N+](=O)[O-])c1 | inactive: -8.84% | 
Cc1nc2c(OCc3ccccc3)cccn2c1CC#N | inactive: 2.86% | 
O=C(c1ccc(OCCN2CCCCC2)cc1)c1c(-c2ccc(O)cc2)sc2cc(O)ccc12 |  | inactive

Compound | activity change, negative = inhibition | Potency
Cc1ccc(N=C2NC(=O)/C(=C/C=C/c3ccco3)S2)cc1C |  | active: 11.2 µM
CC(CN1c2ccccc2Sc2ccccc21)N(C)C (stereo not drawn) |  | inactive
O=C(Nc1ccc2nc(-c3ccco3)c(-c3ccco3)nc2c1)N1CCCCCC1 |  | active: 5.62 µM
N[C@H](Cc1cc(I)c(Oc2ccc(O)c(I)c2)c(I)c1)C(=O)O | inactive: -0.488% [at 21.4 µM] | 
COc1cc2c(-c3ccc(O)cc3)nc3c(c(C)nn3-c3ccccc3)c2cc1OC |  | active: 14.1 µM
O=C(O)c1ccccc1Nc1cccc(OCc2ccc3ccccc3n2)c1 | inactive: -11.9% | 
CCCCCn1c(N)c(-c2nc3ccccc3o2)c2c([N+](=O)[O-])nn(C)c(=O)c21 |  | active: 15.8 µM
CCCCCCCC/C=C\CCCCCCCC(=O)O | inactive: 0.957% | 
CN(c1ccccc1)c1ccc(/C=C(\CCC(=O)O)c2nc3ccccc3s2)cc1[N+](=O)[O-] |  | active: 22.4 µM
C#C[C@]1(O)CC[C@H]2[C@H]3CCC4=Cc5oncc5C[C@]4(C)[C@@H]3CC[C@]21C | inactive: -2.41% | 
CCCC(CCC)C(=O)O |  | inactive
CN(C)CCCC1(c2ccc(F)cc2)OCc2cc(C#N)ccc21 (stereo not drawn) |  | inactive
COC(=O)[C@H]1C(OC)[C@@H](OC(=O)c2cc(OC)c(OC)c(OC)c2)C[C@@H]2CN3CCc4c([nH]c5cc(OC)ccc45)[C@H]3C[C@H]21 (stereo partly drawn) | inactive: -19.3% | 
CN(C)CCC(c1ccc(Cl)cc1)c1ccccn1 (stereo not drawn) |  | inactive
CC[C@H](C)N(C)C(=O)c1cc2ccccc2c(-c2ccccc2Cl)n1 | inactive: -3.93% | 
C[C@H](NC(=O)/C(C#N)=C/c1ccc(O)c(O)c1)c1ccccc1 | inactive: -14.5% | 
Cc1ccc(S(=O)(=O)/N=C2/C=C(Sc3ncn[nH]3)C(=O)c3ccccc32)cc1 |  | active: 15.8 µM
COc1cc(=O)n(C)c2c(OCC(O)C(C)(C)O)cccc12 (stereo not drawn) | inactive: 1.12% | 
CN1/C(=C\C=C2/SC(=S)N(CC(=O)O)C2=O)C(C)(C)c2ccccc21 |  | active: 14.1 µM
Cc1cn([C@H]2C[C@H](N=[N+]=[N-])[C@@H](CO)O2)c(=O)[nH]c1=O |  | inactive
COc1ccc([C@@H]2Sc3ccccc3N(CCN(C)C)C(=O)[C@@H]2OC(C)=O)cc1 |  | inactive
NS(=O)(=O)Cc1noc2ccccc12 |  | inactive
CCOC(=O)C1=C[C@@]2(CC)CCCN3CCc4c(n1c1ccccc41)[C@H]32 |  | inactive
C=CCN1CCc2c(cc(O)c(O)c2Cl)C(c2ccccc2)C1 (stereo not drawn) | inactive: -4.77% | 

Compound | activity change, negative = inhibition | Potency
Cc1c(Cc2ccccc2)c(=O)oc2c(O)c(O)ccc12 |  | active: 12.6 µM
CSc1nc(N)c2ncn([C@H]3O[C@H](COP(=O)(O)OP(=O)(O)OP(=O)(O)O)[C@@H](O)[C@@H]3O)c2n1 | inactive: -3.16% | 
NCCS |  | inactive
COCCOC(=O)C1=C(C)NC(C)=C(C(=O)OC(C)C)C1c1cccc([N+](=O)[O-])c1 (stereo not drawn) |  | inactive
CN1C(C(=O)Nc2ccccn2)=C(O)c2ccccc2S1(=O)=O |  | inactive
COc1cccc(N2CCN(CC(=O)NC(=O)NCc3ccco3)CC2)c1 |  | active: 11.2 µM
CCOC(=O)C1=C(C)NC(C)=C(C(=O)OC)[C@@H]1c1cccc([N+](=O)[O-])c1 | inactive: -4.83% [at 21.4 µM] | 
O=c1[nH]c2cc(Cl)c(Cl)cc2[nH]c1=O | inactive: 0.939% | 
O=C1c2ccccc2-c2onc3ccc(NCCCn4ccnc4)c1c23 |  | active: 35.5 µM
COC(=O)c1ccc(=O)c2nc3/c(=C/O)c(O)cc(=O)c3[nH]c12 |  | active: 17.8 µM
CCN(Cc1ccncc1)C(=O)[C@@H](CO)c1ccccc1 |  | inactive
O=C(O)c1cc([N+](=O)[O-])ccc1NCCCc1ccccc1 |  | inactive
CCCC(=O)OCCNc1cc(SCc2ccco2)c2nonc2c1[N+](=O)[O-] |  | active: 12.6 µM
O=C1Nc2ccc(I)cc2/C1=C/c1cc(Br)c(O)c(Br)c1 | inactive: -14.1% | 
COc1cccc(C2/C(=C(\O)c3ccc4c(c3)OCCO4)C(=O)C(=O)N2CCN(C)C)c1 (stereo not drawn) |  | active: 8.91 µM
O=C(O)CCCC[C@@H]1CCSS1 | inactive: 4.72% | 
NC(=O)N1c2ccccc2CC(=O)c2ccccc21 |  | inactive
Cc1c2cc(O)c(=O)cc-2oc2cc(O)c(O)cc12 |  | active: 14.1 µM
Cc1cc(=O)oc2cc(NC(=O)C(CCCCN)NC(=O)C(CC3CCCCC3)NC(=O)OCC3c4ccccc4-c4ccccc43)ccc12 (stereo not drawn) (Fmoc-[Cha]-Lys-{AMC}; configuration not given here) | inactive: 38.8% | 
CSc1ccc(/C=N/NC(=O)c2ccc(C)c(C)c2)cc1 |  | active: 28.2 µM
Cc1c2oc3c(C)ccc(C(=O)N[C@@H]4C(=O)N[C@H](C(C)C)C(=O)N5CCC[C@H]5C(=O)N(C)CC(=O)N(C)[C@@H](C(C)C)C(=O)O[C@@H]4C)c3nc-2c(C(=O)N[C@@H]2C(=O)N[C@H](C(C)C)C(=O)N3CCC[C@H]3C(=O)N(C)CC(=O)N(C)[C@@H](C(C)C)C(=O)O[C@@H]2C)c(N)c1=O (I: T[dV]P[Sar][NMeV] / II: T[dV]P[Sar][NMeV]; ester I:1-I:C, II:1-II:C; linker I:N-II:N via Actinocin(9to1)) | inactive: -24.3% | 
